According to ChEMBL document CHEMBL1156829:
In all, about 5,400 compounds were measured (“IFI”: median about 2, highest 2% from about 22 on). The list shows a part of the results.

Assay: NOVARTIS: Inhibition Frequency Index (IFI) - the number of HTS assays where a compound showed > 50% inhibition/induction, expressed as a percentage of the number of assays in which the compound was tested.
Assay type: functional

Compound | IFI [%]
CCc1ccc2[nH]c(=O)c(CN(CCO)C(=S)Nc3ccccc3CC)cc2c1 | 6.48
COc1ccc(NC(=O)N2CCN(C(=O)c3nc(-c4ccccc4)nc(C)c3C(=O)OC(C)C)CC2C)cc1 (centres undefined) | 1.87
OC1=C2C(=Nc3ccccc3SC2c2ccccc2)c2ccccc21 (centres undefined) | 2.25
CC1(C)N=C(N)N=C(N)N1c1ccc(Cl)cc1 | 9.63
COc1ccc(-c2cc(-c3ccc(C)cc3)[nH]n2)c(O)c1 | 10.6
C=CCN1/C(=C/C=C/c2sc3ccccc3[n+]2CC=C)Sc2ccccc21 | 7.69
CN1CCc2c(sc3nc(SCc4ccccc4)n(-c4ccccc4)c(=O)c23)C1 | 10.2
CCN(CC)c1cc2oc3cc(=[N+](CC)CC)ccc-3nc2c2ccccc12 | 14.6
CC1CCN(Cc2c(O)ccc3cc(-c4nc5ccccc5s4)c(=O)oc23)CC1 | 6.99
CCOC(=O)c1c(CNCCN(CC)CC)n(C)c2cc(Br)c(O)cc12 | 0
c1ccc(CCNc2cccc3ccccc23)cc1 | 1.79
Cc1cc(Nc2cccc3ccccc23)nc(Nc2cccc3ccccc23)n1 | 0
Cc1ccc2[nH]c3c(NCCc4ccccc4F)ncnc3c2c1 | 14.6
Cc1ccc(N=Nc2nc3ccccc3n2C)c(C)c1 | 19.4
O=C1NC(=S)N/C1=C/c1cccc(Oc2ccccc2)c1 | 0
COc1ccc(-n2nc(C(=O)NCC(=O)NCCCN3CC(C)CC(C)C3)c3ccccc3c2=O)cc1Cl (centres undefined) | 0
OC(COc1ccc(OCC(O)CN2CCN(C3c4ccccc4-c4ccccc43)CC2)cc1)CN1CCN(C2c3ccccc3-c3ccccc32)CC1 (centres undefined) | 3.03
COc1ccc(/C=C2/SC(=Nc3ccccc3)NC2=O)c(OC)c1 | 0
COCCNC(=S)N(Cc1ccc(F)cc1)Cc1cc2ccc(C)c(C)c2[nH]c1=O | 2.5
O=C1CN(C(=O)COC(=O)c2ccccc2NCCc2ccc(F)cc2)c2ccccc2N1 | 2.44
O=[N+]([O-])c1ccc(S(=O)(=O)N2CCN(C(=S)NCC3CCCO3)CC2)cc1 (centres undefined) | 0
Cc1ccccc1N=c1oc2ccc3ccccc3c2cc1-c1nc2ccccc2[nH]1 | 0
CCOC(=O)c1cnc2ccc(OCC)cc2c1NCCN(CC)CC | 0
COC(=O)C1=C(C(=O)OC)SC(=C2C(=S)C(C)(C)N(C(=O)c3ccc([N+](=O)[O-])cc3)c3ccc(C)cc32)S1 | 0
CCOC(=O)C1=C(C)NC2=C(C(=O)CC(c3ccc(OC)c(OC)c3)C2)C1c1ccc([N+](=O)[O-])cc1 (centres undefined) | 2.38

Compound | IFI [%]
CCCCNC(=O)C(CC(C)C)N1C(=O)c2cc(NC(C)=O)ccc2NC(=O)[C@@H]1C (some centres undefined) | 2.47
CCCOc1ccc(C=Nc2ccc(S(=O)(=O)Nc3ccccn3)cc2)cc1 | 0
O=[N+]([O-])c1cccc(-c2ccc(C=NNc3nc4ccccc4[nH]3)o2)c1 | 0
Cc1cc(NS(=O)(=O)c2ccc(N=Cc3ccc(C#N)cc3)cc2)no1 | 7.69
Cc1ccc(CN2CCN(Cc3ccccc3)CC2)o1 | 0
S=C(NCc1ccco1)NC1CC2CCC(C1)N2Cc1ccccc1 (centres undefined) | 1.24
COc1ccc(-n2c(SC)nc3sc4c(c3c2=O)CCN(Cc2ccccc2)C4)cc1 | 7.41
CN(Cc1cc(-c2ccccc2)ccc1O)CC(O)c1ccccc1 (centres undefined) | 1
Cc1cc(Nc2ccc(OCc3ccccc3)cc2)nc2cc(O)ccc12 | 9.09
CCN(CC)c1nc(-c2cccnc2)nc2ccccc12 | 0.752
OCC(O)COc1cccc2ccccc12 (centres undefined) | 0.775
CCCOc1ccc(C2Sc3ccccc3N=C3C2=C(O)c2ccccc23)cc1OC (centres undefined) | 3.33
CN(C)C(=O)CN(C)C(=O)c1cnc2scc(C(C)(C)C)n2c1=O | 0
CCCOC(=O)C1=C(C)NC2=C(C(=O)CC(c3ccc(OC)c(OC)c3)C2)C1c1ccc(Br)cc1 (centres undefined) | 4.88
O=C(Nn1c(SCc2cc(=O)n3ccccc3n2)nc2ccsc2c1=O)c1cccc(Br)c1 | 0
CN(C)c1ccc(/C=C/c2nc(=O)c3ccccc3o2)cc1 | 5.88
COc1cc(NC(C)CCCN(Cc2ccc(N(C)C)cc2)S(=O)(=O)c2cccc3ccccc23)c2ncccc2c1 (centres undefined) | 3.7
COc1cc2c(cc1OC)C1Cc3ccc(OC)c(OC)c3CN1CC2 (centres undefined) | 0.68
CCOC(=O)c1cccc(N2C(N)=NC(N)=NC2(C)C)c1 | 0
Nc1cccc(Oc2ccc3c(c2)C(=O)N(c2cccc(C(=O)O)c2)C3=O)c1 | 0
COc1ccc(-c2c[n+](CC(=O)c3ccccc3Cl)c3n2CCC3)cc1 | 2.5
CCOc1c(Br)cc(C2C(C(=O)OC)=CN(C)C=C2C(=O)OC)cc1OC | 4.6
CSc1cccc([C@@H]2C[C@H]3CN(c4ccccc4)C(=O)[C@]34CCCN24)c1 | 0
CCN(CC)CCCC(C)Nc1cc(/C=C/c2ccccc2Cl)nc2cc(Cl)ccc12 (centres undefined) | 8.06
